Results on 35 sequences are retold here after the supplement of paper PMC10681739.

The full ranking holds about 4,000 sequences; the median of “arbitrary fluorescence units” is about 830, and the highest 2% start at about 6,500. Most of the strongest results are missing from this list.
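Further: Full-length recombinant human RUNX1 bound to double-stranded DNA microarray spots, detected with an Alexa488-labelled secondary antibody after the anti-RUNX1 primary, read as scanned spot fluorescence.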

Chain of UniProt Q01196 (Q01196 whole entry): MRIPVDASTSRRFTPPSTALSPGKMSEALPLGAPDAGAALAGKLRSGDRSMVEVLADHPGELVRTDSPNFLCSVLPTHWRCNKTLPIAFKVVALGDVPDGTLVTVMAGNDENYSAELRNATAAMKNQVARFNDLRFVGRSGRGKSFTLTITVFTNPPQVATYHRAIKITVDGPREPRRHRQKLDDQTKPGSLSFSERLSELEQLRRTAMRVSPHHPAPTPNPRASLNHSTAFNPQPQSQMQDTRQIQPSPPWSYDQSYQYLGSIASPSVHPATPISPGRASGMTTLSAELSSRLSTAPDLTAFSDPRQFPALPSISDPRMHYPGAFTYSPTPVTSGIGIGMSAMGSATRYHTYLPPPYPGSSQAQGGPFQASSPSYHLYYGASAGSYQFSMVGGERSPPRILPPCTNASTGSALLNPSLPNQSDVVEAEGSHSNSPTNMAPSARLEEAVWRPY

The target in this assay is RUNX1 (UniProt Q01196). Briefly: RUNX1 binding intensity (PBM fluorescence), RUNX1 alone (arbitrary fluorescence units); higher = stronger binding. Conditions: RUNX1 concentration 2 nM; ETS1 concentration 0 nM. The procedure:
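gcPBM on 36-bp genomic-derived probes (partner site mutated) containing one RUNX1 site and no ETS1 site. Recombinant human RUNX1 (2 nM) was incubated alone or with ETS1 (25 nM) and detected by anti-RUNX1 antibody fluorescence. Values are medians over 4 replicate spots (not normalised). The probes sit in constant array flanks that are not printed.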
Regarding GGCCCCAACGCGGTTAGCGCTTGCGAAAACTCCCCC, the RUNX1 binding intensity is 1060.
With AGGACGGGCGAAAGTGGCTGCGGTGGATGGTGGGAG the figure was 788; with CGAGCAGCGGTTGCCGCGGGGGGGGAACAAACAGGC, 775; with CTTTTCGCGTTGTGGCTGGGACTTTCGCTCCGCCAT, 886.
With CCAGAGACCACAGCCACTCTCTTCTCCCCATCAGCC the figure was 1570; with TGTTTTTGTCTCCGTTTACAAACCACAACAAAGGTG, 1670; with TTTGCAAAACCACTGCGGAGACTCCCGGTGGCCTAG, 704.
With AGCCCGGCTTCAGGCGCGTGCCGCTGCGGCTGCAGG the figure was 711.
For the sequence GGCCTCTGCGGCGCCGCGACATGAAGCGGCGGGCGA, the RUNX1 binding intensity was determined as 689.
Next, GCTGCCACCTCCCTTGCTTATTTCATGTGGTTTGGA: 1150; TGGGCATTACCGCTTTCCAGCTGAAGGGGGCATCTT: 842.
With GCTTCTGAGGCAGTGCGTTTTGTGGGTAGGTGGAGT the figure was 821; with CCCCTGCCCCTTCATGGAAGGCTGCGGTGTAACACC, 916; with GCGCACTCCCGGGCTGGTGAACGCGGTGACGTCACC, 708.
Turning to GTGCGGAACCGCCATTTTTAAAGGGCCAGGGAGCTT, the RUNX1 binding intensity came out at 760.
CCCGCGGTGCGTGCGCAGCTCCGACTCCCGGGTGCT had an RUNX1 binding intensity of 802.
CAAACGATAGCAGCAAAGGCCTGTGGCTTGACAGCA registered an RUNX1 binding intensity of 713.
Next, GCATTGTGCTTCAGCTCGGGGAAAGACCGCTTACGG: 643; GCCAGGCGCCCACAGGTTGGCATGAAGAGCACTTAG: 774; AGGGATGCTGGGACATGTAGTCCAGCCACAAGCCAA: 761.
With CCTTTGTGGTAGCAGTGGCCCCGCGCGGAGGACGTT the figure was 860; with CTGTCTTGGTTTTCTGTTCTTATTTTAGTTTCATGT, 1850; with TTCCAGTTTGCGCCAGCCACCTGAACTGCGGCCCAG, 760.
Regarding TTCTGCAAGAAAACCAACATAATTTGCTGTCTCTAC, the RUNX1 binding intensity stood at 754.
Next, GAGGTTGGGAACTTCTTCCTTTGGTCTGACCACAGT: 793.
With GCACAAAGCCACAAAACCCATTCCTGCCGGCTATGA the figure was 1430; with AAAGGCACGGTGGTTAGCGCGGGCTTGCTGGAGGAC, 789; with CGGGGCGCGGTTCCCCCTGGGCTCCCTGAAGTAATA, 759.
Next, CCACACGGCAGGGAGTCGTGTCGTGGTTTACCCCGG: 752; CGGAGCGCGGTGGGGTGGGTGCGGCAGGGGGCGAGG: 874.
CCATGAAGGCGCCTGCATCCTCCAAGCCCACAGAGC: the RUNX1 binding intensity amounted to 822.
Next, TGTGGCAACCACAGCCCCAAAACAAAGAGGAGACAC: 1040; GGCACTCCCGGTCCTGACCTGAAGCGGTAACCGTCA: 772; CTTGCGCCCACAGAGCCCGCCACTGCCGCCTCACAG: 1000.
For GCACTCCCGGAGCCGGGCGTCTACAGACCGCGGCCA, the RUNX1 binding intensity worked out at 790.
